Measured values taken from PubChem BioAssay AID504706 (National Center for Advancing Translational Sciences (NCATS), 2011).
About 200 (0.062%) of roughly 320,000 compounds were called active. Inconclusive means that the source gave no clear call. Such entries were picked first, then a sample of the others. Calls come from the whole dose curve; as a rule, active = well fitted activation curve with a large enough effect; inconclusive = small, poorly fitted or top-dose-only effect; inactive = no such curve, though single readings can be large or run the other way. Potencies of inconclusive entries are left out as doubtful fits.

test: qHTS assay for re-activators of p53 using a Luc reporter; settings: H1299 p53-A138V BP100-luciferase reporter, luminescence, 24 h; series mostly up to 92.2 µM; note: nearly all actives have a fitted effect of over 45% in size
Method in brief: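 p53-null H1299 cells stably carrying temperature-sensitive p53-A138V and a BP100-luciferase reporter were pinned with compounds (4-point, 1:5 series) and held 24 hrs at 37 deg C. Luminescence was read 10 min after detection reagent.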
Potency is the fitted concentration of half-maximal effect; tags give direction and shape of the fitted curve.

| Structure (SMILES) | Potency |
| --- | --- |
| CCCOc1ccc(C(=O)c2nc3c(n2O)CCCC3)cc1 | inconclusive [activator, single point] |
| COC(=O)c1ccc2c(=O)n(Cc3ccco3)c(SCC(=O)Nc3ccccc3Cl)nc2c1 | inconclusive [activator, single point] |
| CC(C)(C)OC(=O)NCCCC[C@H](NC(=O)c1nc[nH]c1C(=O)NC(c1ccccc1)c1ccccc1)C(=O)OC(C)(C)C | inactive |
| O=C(CSc1cccs1)Nc1cccc2ccccc12 | inconclusive [activator, partial curve, poor fit] |
| COc1ccc(-c2nnc(-c3cccnc3)o2)cc1OC | inconclusive [activator, single point] |
| COc1ccc(OCCC(=O)OCC(=O)Nc2cccc(S(=O)(=O)N3CCCCC3)c2)cc1 | inconclusive [activator, single point] |
| COc1ccc(-c2n[nH]c(=S)n2CC(C)C)cc1 | inactive |
| O=C(CCCOc1ccc(Cl)cc1)N1CCOCC1 | inconclusive [activator, partial curve, poor fit] |
| COc1ccc(-c2nnc(SCC(=O)N3CCCCC3)o2)cc1OC | inactive |
| CC(C)N(C(=O)c1sc2cc([N+](=O)[O-])ccc2c1Cl)C(C)C | inactive |
| O=C(Nc1cccc2ccccc12)c1ccc(F)cc1 | inconclusive [activator, single point] |
| c1ccc(CSc2nnc(Cc3ccccc3)o2)cc1 | inactive |
| O=C(c1ccco1)N1CCN=C1SCc1cccc(F)c1 | inconclusive [activator, single point] |
| Cc1ccc(-c2nnc(Cc3ccc(Cl)cc3)o2)cc1 | inconclusive [activator, partial curve, poor fit] |
| O=C(Nc1ccnn1C1CCN(Cc2ccccc2)CC1)C1CCOC1 (centres undefined) | inconclusive [activator, single point] |
| Cc1[nH]c2ccc(C(=O)OC(C)C(=O)NCc3ccccc3)cc2c1C (centres undefined) | inactive |
| COC(=O)c1cccc(-n2sc3ccccc3c2=O)c1 | inconclusive [activator, partial curve, poor fit] |
| O=c1c(-c2ccc([N+](=O)[O-])cc2)coc2c(O)c(O)ccc12 | inconclusive [activator, partial curve, poor fit] |
| c1ccc(Cc2nc3ccccc3n2Cc2ccccc2)cc1 | inactive |
| CCc1ccc(NC(=O)Nc2ccon2)cc1 | inconclusive [activator, partial curve, poor fit] |
| O=C(CSCc1ccco1)N1CCc2ccccc21 | inconclusive [activator, partial curve, poor fit] |
| O=C(/C=C/c1cccs1)Nc1ccc(Br)cn1 | inconclusive [activator, full curve, poor fit] |
| COc1ccc2oc(=O)c(C(=O)Nc3cccc(C(C)=O)c3)cc2c1 | inconclusive [activator, single point] |

| Structure (SMILES) | Potency |
| --- | --- |
| COc1ccc(/C=N/Nc2nc(Nc3ccccc3)nc(N3CCCCC3)n2)c(OC)c1 | inactive |
| O=C(N/N=C1\CCSC1)c1cc(Cl)ccc1O | inconclusive [activator, single point] |
| O=C(NC1CC2CCCC(C1)N2Cc1ccc(F)cc1)c1ccc(F)cc1 (centres undefined) | inconclusive [activator, partial curve, poor fit] |
| Cc1cccc(C(=O)Nc2nc3ccc(S(C)(=O)=O)cc3s2)c1 | inconclusive [activator, partial curve, poor fit] |
| COc1c(Cl)cnn(-c2ccccc2)c1=O | inconclusive [activator, partial curve] |
| CC1Sc2ccc(S(=O)(=O)CCC(=O)NC3CCCC(C)C3C)cc2NC1=O (centres undefined) | inactive |
| Cc1ccccc1-c1noc(-c2cccs2)n1 | inconclusive [activator, full curve, poor fit] |
| O=C(/C=C/Nc1ccc(F)c(Cl)c1)c1ccco1 | inconclusive [activator, partial curve, poor fit] |
| COc1cccc(/C=N/NC(=O)CNC(=O)c2ccncc2)c1O | inconclusive [activator, single point] |
| O=C(CNC(=O)c1ccccc1F)NCCc1ccccc1F | inconclusive [activator, partial curve, poor fit] |
| COc1ccc(C(=O)Nc2nc3ccccc3c(=O)[nH]2)cc1 | inconclusive [activator, partial curve, poor fit] |
| Oc1c(C(c2ccccn2)N2CCCCC2)cc(Cl)c2cccnc12 (centres undefined) | inactive |
| O=C(CSC1=NCCS1)N1CCc2ccccc21 | inconclusive [activator, partial curve, poor fit] |
| Cc1cccc(C(=O)NCC(=O)N2CCCC2)c1 | inconclusive [activator, single point] |
| COc1ccc(/C=C/C(=O)c2c(O)cc(C)oc2=O)c(OC)c1 | inconclusive [activator, partial curve, poor fit] |
| O=C1CN(C(=O)c2ccc(Br)o2)C(c2ccccc2)c2cc(F)ccc2N1 (centres undefined) | inactive |
| S=C(NC1CCCCC1)N1CCOCCOCCN(C(=S)NC2CCCCC2)CCOCCOCC1 | inactive |
| C=CCSc1n[nH]c(-c2ccc(OC)cc2)n1 | inconclusive [activator, full curve, poor fit] |
| CN1CCN(c2ccc(NC(=S)NC(=O)c3cccc4ccccc34)cc2)CC1 | inconclusive [activator, single point] |
| O=C(NCCc1ccc2c(c1)OCCO2)c1cc(F)cc(F)c1 | inconclusive [activator, partial curve, poor fit] |
| CCN(CC)S(=O)(=O)c1ccc2oc(C(=O)NCCCN3CCOCC3)c(C)c2c1 | inactive |
| Cc1ccc(NC(=O)c2cccc(OCc3c(C)noc3C)c2)cc1 | inactive |
| O=c1c2ccccc2sc2ccc(Cl)cc12 | inconclusive [activator, full curve, poor fit] |

| Structure (SMILES) | Potency |
| --- | --- |
| O=C(CSCc1ccc(Cl)cc1)Nc1cccc(C(=O)O)c1 | inconclusive [activator, single point] |
| Cc1ccc(-c2cc(C(F)(F)F)c(C#N)c(SCCC#N)n2)o1 | inactive |
| O=C(Nc1nc(=O)c2ccccc2s1)c1ccccc1 | inconclusive [activator, partial curve, poor fit] |
| CS(=O)(=O)N1CCN(c2ccc(NC(=O)c3ccc(Br)o3)cc2)CC1 | inconclusive [activator, full curve, poor fit] |
| Fc1cccc(/C=N/Nc2ncnc3nc[nH]c23)c1 | inconclusive [activator, partial curve, poor fit] |
| COc1ccccc1C(=O)NCC(=O)NNC(=O)c1cccs1 | inactive |
| COc1ccc(/C=C/C(=O)Nc2ccccc2C(=O)NCC(c2ccc(OC)cc2)N(C)C)cc1 (centres undefined) | inconclusive [activator, full curve] |
| CCC(=O)Nc1cccc(-c2ccc(N3CCN(C)CC3)nn2)c1 | inconclusive [activator, partial curve, poor fit] |
| O=[N+]([O-])c1ccc(O)c(/C=N/Nc2ccccn2)c1 | inconclusive [activator, partial curve, poor fit] |
| COc1ccc(NC(=O)c2cnn(-c3ccccc3)c2C)cc1OC | inconclusive [activator, partial curve, poor fit] |
| COC1=C/C(=C/c2c(N)n3c(nc2=O)sc2cc(S(C)(=O)=O)ccc23)C=CC1=O | inconclusive [activator, partial curve, poor fit] |
| O=C(NCCc1ccccc1)C(=O)Nc1nccs1 | inconclusive [activator, partial curve, poor fit] |
| CS(=O)(=O)N(CC(=O)NCC1CCCO1)c1cc(Cl)ccc1Cl (centres undefined) | inactive |
| CC(=O)c1cccc(NC(=S)N2CCC(Cc3ccccc3)CC2)c1 | inactive |
| C/C(=N\Nc1nc2ccccc2[nH]1)c1ccc(Cl)s1 | inconclusive [activator, full curve, poor fit] |
| O=C(Nc1ccccc1)c1ccc(CSc2ccccn2)cc1 | inconclusive [activator, partial curve, poor fit] |
| Cc1ccc(NC(=O)c2ccc(OC(=O)C(C)Oc3ccc(Cl)cc3C)cc2)cc1 (centres undefined) | inconclusive [activator, partial curve, poor fit] |
| COc1ccc(-n2c(C)cc(/C=C(\C#N)C(=O)NCc3ccco3)c2C)cc1 | inactive |
| O=C(NCCCO)C(=O)Nc1cc2c3c(c1)CCN3C(=O)CC2 | inconclusive [activator, single point] |
| CN(C)CCN(C(=O)C1=COCCO1)c1nc2ccc(Cl)cc2s1 | inconclusive [activator, partial curve, poor fit] |
| CCOc1ccc(/C=C/C(O)=C2/C(=O)N(C)C3(C)CC2c2ccccc2O3)cc1OC (centres undefined) | inactive |
| Cc1ccc(N2C(=O)c3ccccc3NC2(C(=O)O)c2ccccc2)cc1Cl (centres undefined) | inconclusive [activator, partial curve, poor fit] |
| CC(=O)C1=C(O)C(=O)N(c2ccccn2)C1c1ccccc1[N+](=O)[O-] (centres undefined) | inactive |
